Assay results published in publication PMC4336329 (PLoS ONE, 2015).
The campaign covered roughly 310,000 compounds. About 2,200 (0.71%) showed an effect of 50% or more. Effects have a minus sign here. Some of the results follow.

These molecules were tested against human ether-à-go-go-related gene (hERG) potassium channel (human, UniProt Q12809) (assay: primary screen, population patch clamp on CHO cells stably expressing hERG).
Sequence of human ether-à-go-go-related gene (hERG) potassium channel (Q12809 whole entry, looked up): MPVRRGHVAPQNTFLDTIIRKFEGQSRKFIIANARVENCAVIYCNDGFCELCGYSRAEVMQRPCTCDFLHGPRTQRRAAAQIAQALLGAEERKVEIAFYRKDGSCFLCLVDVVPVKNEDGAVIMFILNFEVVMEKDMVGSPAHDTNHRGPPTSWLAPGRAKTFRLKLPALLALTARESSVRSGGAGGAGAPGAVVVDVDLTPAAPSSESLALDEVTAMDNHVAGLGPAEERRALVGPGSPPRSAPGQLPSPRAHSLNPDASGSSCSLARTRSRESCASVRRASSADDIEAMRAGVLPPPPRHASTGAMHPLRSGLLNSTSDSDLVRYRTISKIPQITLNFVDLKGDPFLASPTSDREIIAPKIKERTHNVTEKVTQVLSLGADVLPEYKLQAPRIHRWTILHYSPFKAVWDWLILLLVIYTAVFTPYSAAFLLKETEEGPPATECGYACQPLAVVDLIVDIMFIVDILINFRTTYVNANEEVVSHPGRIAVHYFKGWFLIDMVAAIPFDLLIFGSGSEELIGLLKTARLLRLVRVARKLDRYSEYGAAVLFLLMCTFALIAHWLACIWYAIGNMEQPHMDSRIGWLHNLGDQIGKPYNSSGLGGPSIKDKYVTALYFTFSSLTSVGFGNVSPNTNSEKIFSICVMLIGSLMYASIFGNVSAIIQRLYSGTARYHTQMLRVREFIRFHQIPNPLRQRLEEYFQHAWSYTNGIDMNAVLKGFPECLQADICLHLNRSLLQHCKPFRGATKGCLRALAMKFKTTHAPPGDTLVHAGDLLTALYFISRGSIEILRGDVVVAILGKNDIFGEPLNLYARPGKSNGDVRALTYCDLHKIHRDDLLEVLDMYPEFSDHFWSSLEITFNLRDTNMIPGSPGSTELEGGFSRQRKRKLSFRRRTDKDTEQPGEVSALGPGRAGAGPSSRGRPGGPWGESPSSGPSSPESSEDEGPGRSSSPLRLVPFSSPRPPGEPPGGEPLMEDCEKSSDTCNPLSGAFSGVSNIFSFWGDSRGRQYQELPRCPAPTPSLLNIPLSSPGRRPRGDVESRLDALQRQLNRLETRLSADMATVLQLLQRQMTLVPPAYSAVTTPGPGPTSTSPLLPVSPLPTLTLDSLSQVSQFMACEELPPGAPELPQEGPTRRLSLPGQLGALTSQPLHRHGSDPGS

Structure (SMILES)	hERG current change (%, negative = inhibition) at 1uM
CN1CCc2ccccc2Cc2[nH]c3ccccc3c2CC1	1.09%
COc1cc(C(=O)OC(C)CN2C(C)CCCC2C)cc(OC)c1OC.Cl (stereo not drawn)	-2.99%
CCCCN(CC)CCCNC(=O)c1cn(-c2ccc(OC)cc2)c(=O)c2ccccc12	-7.85%
Cc1nn(CCC(=O)O)c2nc(-c3cccnc3)cc(C(F)(F)F)c12.Cl	6.53%
CC(C)C(NC(=O)C1CCCCC1)C(=O)Nc1ccccn1 (stereo not drawn)	8.74%
Cc1cccc(OCC(=O)OCC(=O)c2c(N)n(C)c(=O)n(C)c2=O)c1	-6.69%
CCc1nc2ccccc2c(C(=O)OCC(=O)NC(=O)c2cccn2C)c1C	10.5%
CCOC(=O)N1CCN(C(=O)CCc2cc(OC)c(OC)c(OC)c2)CC1	6.56%
O=C(CCc1ccc(S(=O)(=O)N2CCOCC2)cc1)OCc1nc2ccccc2s1	8.85%
CC(C)N=C(NC#N)SCc1ccccc1F	1.31%
CCN1CCN(c2cc(C)c3cc(NC(=O)c4ccc(OC)c(OC)c4)ccc3n2)CC1	-4.89%
CCOC(=O)CN(C(=O)Cn1nnc2ccccc21)C(C(=O)NCCOC)c1ccccc1C (stereo not drawn)	8.01%
Cc1ccc(NC(=O)c2nnn(-c3cccc(C(F)(F)F)c3)c2N)cc1	-4.01%
COc1ccc2[nH]c(C)c(CCNC(=S)Nc3cc(C)ccc3C)c2c1	12.6%
COc1ccc(C2=COc3ccccc3C(=O)N2)cc1	4.38%
N#Cc1ccc(C(=O)N2CCN(C(=O)C3CCCO3)CC2)cc1 (stereo not drawn)	6.79%
c1ccc2sc(NC3=NCN(C4CCCCCC4)CN3)nc2c1	-5.32%
Cc1ccc(S(=O)(=O)c2cc3c(=O)n4ccccc4nc3n(CCCN3CCOCC3)c2=N)cc1C	2.37%
O=C(c1cc(COc2ccc(F)cc2F)on1)N1CC[C@@H]2CCCC[C@H]2C1	3.35%
Cc1cc(C(=O)N/N=C/C=C/c2ccc([N+](=O)[O-])cc2)n[nH]1	-0.637%
COC(=O)c1nn(-c2ccc(F)cc2)ccc1=O	5.3%

Structure (SMILES)	hERG current change (%, negative = inhibition) at 1uM
CC(=O)c1ccc(NC(=O)NNS(=O)(=O)c2ccc(F)cc2)cc1	13.6%
CCC1(c2ccccc2)NC(=O)N(CC(=O)Nc2cccc(S(=O)(=O)N3CCCC3)c2)C1=O (stereo not drawn)	3.13%
O=C(N/N=C/c1ccc([N+](=O)[O-])o1)c1ccc(NS(=O)(=O)c2cccs2)cc1	6.96%
CCOC(=O)C1=C(CC)OC(N)=C(C#N)C1c1ccc(OC)c(C)c1OC (stereo not drawn)	1.72%
Oc1cccc(C=NCc2ccccc2)c1	12.7%
Cc1ccc(CNC(=O)COc2ccc(S(=O)(=O)N3CCCC3)cc2)cc1	18.1%
CCC(C)N(C)C(=O)c1cc2ccccc2c(-c2ccccc2Cl)n1 (stereo not drawn)	-5.29%
Cc1ccc(-c2nc3cnccn3c2Nc2ccccc2)o1	7.82%
CCOC(=O)Nc1ccc2c(c1)N(C(=O)CN)c1ccccc1CC2	2.32%
CCCOc1ccc(-c2c(C(=O)N/N=C(\C)c3cccs3)nnn2-c2nonc2N)cc1	13.6%
Nc1ccc(C(=O)OCC(=O)NC(=O)c2ccccc2)cc1[N+](=O)[O-]	19.7%
COc1cc(/C=C2/C(=N)N3C(c4ccccc4)=CSC3=NC2=O)ccc1OCC(=O)O	9.21%
CCOC(=O)C1(Cc2cccc(F)c2)CCN(Cc2ccc(COC)o2)CC1	7.47%
CCc1ccccc1S(=O)(=O)Cc1ccc(C(=O)NCCc2ccccc2)o1	3.66%
Cc1ccc(NC(=O)CN2C(=O)NC3(CCc4ccccc43)C2=O)cc1Cl (stereo not drawn)	8.06%
CC(=O)NC1CCC(C(=O)O)(c2ccccc2)C1 (stereo not drawn)	-8.84%
COc1ccc(-c2csc(NC(=O)CSCc3c(C)noc3C)n2)c(OC)c1	5.97%
Cc1cc(C)cc(NC(=O)c2ccc3c(c2)CCN3S(C)(=O)=O)c1	1.92%
O=C(O)CCCNc1cc(N2CCN(C(=O)c3ccco3)CC2)c2noc3c2c1C(=O)c1ccccc1-3	19.4%
N#CCCN1CCN(S(=O)(=O)c2ccc(C#N)cc2)CC1	-0.107%
CCC/C(=N\NC(=O)CNC(=O)c1ccc(Cl)cc1)c1ccccc1	10.8%
